The values that follow come from paper PMC4336329 (PLoS ONE, 2015).

In all, about 310,000 compounds went through this assay and about 14,000 (4.5%) showed an effect of 50% or more. Effects have a minus sign here. Some of the results follow. Where a SMILES comes first, the peptide text is derived from it. The star is where a group is joined. Boc = CC(C)(C)OC(=O)*
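Also: peak tail current of the secondary pulse compared with the same well before compound.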

The assay deals with human ether-à-go-go-related gene (hERG) potassium channel (human, UniProt Q12809). The experiment in a line: primary screen, population patch clamp on CHO cells stably expressing hERG.
Chain of human ether-à-go-go-related gene (hERG) potassium channel (Q12809 whole entry, looked up): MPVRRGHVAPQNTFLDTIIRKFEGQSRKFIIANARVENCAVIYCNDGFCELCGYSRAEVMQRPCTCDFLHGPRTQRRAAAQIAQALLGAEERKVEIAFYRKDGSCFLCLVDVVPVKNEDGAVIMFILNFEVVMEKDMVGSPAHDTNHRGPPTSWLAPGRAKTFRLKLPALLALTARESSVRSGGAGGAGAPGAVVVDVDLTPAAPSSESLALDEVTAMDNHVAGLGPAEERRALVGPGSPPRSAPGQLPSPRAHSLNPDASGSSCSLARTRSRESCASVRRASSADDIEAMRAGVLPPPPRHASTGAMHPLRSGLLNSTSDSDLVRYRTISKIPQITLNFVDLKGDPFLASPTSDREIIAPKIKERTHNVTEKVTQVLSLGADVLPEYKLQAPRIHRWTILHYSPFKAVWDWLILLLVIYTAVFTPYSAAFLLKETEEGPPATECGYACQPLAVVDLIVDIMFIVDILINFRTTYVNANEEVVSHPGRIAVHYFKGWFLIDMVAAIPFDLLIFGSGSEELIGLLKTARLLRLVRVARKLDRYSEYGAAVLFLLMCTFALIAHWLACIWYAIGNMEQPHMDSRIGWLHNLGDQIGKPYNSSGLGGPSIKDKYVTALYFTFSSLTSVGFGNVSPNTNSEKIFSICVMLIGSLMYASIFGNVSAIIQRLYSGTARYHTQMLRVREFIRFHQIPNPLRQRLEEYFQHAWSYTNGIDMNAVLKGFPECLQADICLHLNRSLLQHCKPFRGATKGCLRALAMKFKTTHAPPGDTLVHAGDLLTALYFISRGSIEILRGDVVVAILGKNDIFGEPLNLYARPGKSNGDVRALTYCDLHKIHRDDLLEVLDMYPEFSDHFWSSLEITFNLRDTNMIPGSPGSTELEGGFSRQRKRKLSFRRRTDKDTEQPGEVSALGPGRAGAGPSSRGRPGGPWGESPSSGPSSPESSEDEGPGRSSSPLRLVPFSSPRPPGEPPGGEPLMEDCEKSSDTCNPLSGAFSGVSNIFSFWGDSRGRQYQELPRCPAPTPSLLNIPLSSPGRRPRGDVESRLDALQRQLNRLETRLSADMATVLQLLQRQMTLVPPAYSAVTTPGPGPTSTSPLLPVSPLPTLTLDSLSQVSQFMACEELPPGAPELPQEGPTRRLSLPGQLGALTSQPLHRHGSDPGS
For `N=c1c(C(=O)NCC2CCCO2)cc2c(=O)n3ccccc3nc2n1Cc1ccc(Cl)cc1` (centres unmarked), the “hERG current change (%, negative = inhibition) at 10uM” value is recorded as -77.2%.
The result for `O=C(Nc1cccc(-c2csc(Nc3ccc(Cl)cc3)n2)c1)c1ccccc1` reads 19.1%.
The result for `COc1ccccc1-c1nc(SCC(=O)N2CCC(C(N)=O)CC2)n[nH]1` reads 8.48%.
Next, `COc1ccc(CN(CCO)CCO)cc1[N+](=O)[O-].Cl`: 3.54%; `O=C1CN(S(=O)(=O)c2cc(C(F)(F)F)ccc2Cl)CCN1`: -6.29%.
On to `COc1cc(/C=N/NC(=O)c2ccoc2C)ccc1O`, for which the “hERG current change (%, negative = inhibition) at 10uM” value is reported as -3.54%.
Next, `CN(C)C(CNC(=O)c1ccc(NS(=O)(=O)c2cccc([N+](=O)[O-])c2)cc1)c1ccco1` (centres unmarked): 12.4%; `COc1cc(O)cc2c1C(=O)O[C@@H](C)CCCC(=O)CCCCC2`: 0.125%; `CCN(CC)C(=O)Cn1cnc([N+](=O)[O-])n1`: 12.1%.
Next, `NC(=O)Nc1ccc(Nc2ccccc2)cc1`: -15.3%; `FC(F)(F)c1ccccc1/C=N/n1c(C2CCCCC2)n[nH]c1=S`: 22.4%; `CCOc1cc(/C=N/n2nnnc2N)ccc1OCc1c(C)no[n+]1[O-]`: 5.43%.
Consider `CC1(C)CC(=O)C=C(Nc2cc(-c3ccccc3)[nH]n2)C1`, for which the “hERG current change (%, negative = inhibition) at 10uM” value is -11.2%.
Next, `N#CCCn1cc(C(=O)Nc2ccccc2Br)c(-c2cccs2)n1`: -22.8%; `COc1cc(OC)cc(-n2nc(C(=O)N3CC(C)CC(C)C3)c3ccccc3c2=O)c1` (centres unmarked): -43.3%; `CC(C)c1cc(C(=O)O)on1`: -3.21%.
The result for `O=c1[nH]c2cc(Cl)c([N+](=O)[O-])nc2[nH]1` reads 1.62%; that for `COc1cccc(Nc2nc(-c3sc(NC(=O)c4ccccc4)nc3C)cs2)c1`, 21%; that for `COc1ccccc1NC(=O)C(C)NS(=O)(=O)c1ccc(Cl)cc1` (centres unmarked), -0.716%.
The result for `CCc1nccn1S(=O)(=O)c1ccc2ccccc2c1` reads 9.38%; that for `COc1ccc(NC(=O)c2cc(-c3ccco3)nc3ccccc23)cn1`, 2.31%.
On to `CC1CCc2ccc(F)cc2N1S(=O)(=O)c1cccs1` (centres unmarked), for which the “hERG current change (%, negative = inhibition) at 10uM” value is 2.36%.
The result for `Cc1oc2cc([N+](=O)[O-])c(O)c([N+](=O)[O-])c2c1C(=O)c1ccc(Br)cc1` reads 28.3%; that for `Cc1cccc(CCN(Cc2cc3cccc(C)c3[nH]c2=O)C(=O)N2CCOCC2)c1`, -29.4%; that for `CCC(=O)c1cn(CC(=O)Nc2c(C)cccc2C)c2ccccc12`, 19.2%.
The result for `COc1cc(OC)cc(C(=O)Nn2cnnc2)c1` reads 10.2%.
Next, `CC1CCN(S(=O)(=O)c2ccc(NC(=O)CCN3C(=O)C4CC=CCC4C3=O)cc2)CC1` (centres unmarked): -25.3%; `CCNCc1cc2cc(C)ccc2[nH]c1=O`: 4.86%.
For `Cc1ccc(-n2[nH]c(C)c(C=Nc3cc(C)ccn3)c2=O)cc1`, the “hERG current change (%, negative = inhibition) at 10uM” value is reported as -1.12%.
On to `Cc1ccccc1NC(=O)c1ccc(NC(=O)c2ccco2)cc1`, for which the “hERG current change (%, negative = inhibition) at 10uM” value came out at 4.77%.
Next, `CCc1c(C(=O)Nc2ccccc2)c(C)[nH]c(=S)c1C#N`: 27.5%.
The result for `Nc1nonc1-n1nnc(C(=O)N/N=C/c2cccnc2)c1CSc1ccc(Cl)cc1` reads 0.312%; that for `O=C(NNC(=O)C1CC(c2cccnc2)=NO1)Nc1cccc(F)c1` (centres unmarked), -5.54%.
Next, `C=CCn1c(SCC(=O)c2cccs2)nc2sc(CC)cc2c1=O`: -4.31%; `CC(C)CNC(=O)c1ccccc1Oc1ccccc1`: -2.63%; `CC(C)c1ccc(N(CC(=O)NC2CCCCC2)C(=O)CCC(=O)Nc2ccccn2)cc1`: -8.38%.
For `NS(=O)(=O)c1ccc(NC(=S)N2CCN(C(=O)C3CCCO3)CC2)cc1` (centres unmarked), the “hERG current change (%, negative = inhibition) at 10uM” value is reported as 11.6%.
Next, `CSCC[C@H](NC(=O)N1CCn2c1nc1ccccc12)C(=O)NCc1ccc(C)cc1`: -13.3%; `Brc1ccsc1/C=N/Nc1ccccc1`: 20.2%.
As for `CC(=O)N1c2c(cc(Br)cc2S(=O)(=O)Nc2c(C)n(C)n(-c3ccccc3)c2=O)CC1C` (centres unmarked), the “hERG current change (%, negative = inhibition) at 10uM” value was 5.64%.
The result for `Cc1ccn(CC(=O)N2CCCC(Nc3ccc(F)c(F)c3)C2)n1` (centres unmarked) reads -0.709%; that for `O=C(NCCCN1CCOCC1)C1CCN(S(=O)(=O)c2cccc(Cl)c2Cl)CC1`, -17.1%; that for `Cc1ccccc1S(=O)(=O)Cc1ccc(C(=O)NCCCN2CCCC2)o1`, -6.93%.
Next, `CCOC(=O)C(Cc1ccc(O)cc1)NC(=O)CNC(=O)C(CC(C)C)NC(=O)OC(C)(C)C` (stereo not drawn) (Boc-Leu-Gly-Tyr-OEt; configuration not given here): 3%.
